From PubChem BioAssay AID1347417 (National Center for Advancing Translational Sciences (NCATS), 2020)
About 5,300 (4.4%) of roughly 120,000 compounds were called active. The shares of active, inactive and inconclusive entries below differ from those in the screen. The call rests on the fitted dose curve; in most records, active means well fitted inhibition curve with a large enough effect; inconclusive means small, poorly fitted or top-dose-only effect; inactive means no such curve, though single readings can be large or run the other way. Potencies beside an inconclusive call are fits to weak or partial responses and may not hold up.
Potency means the concentration at half of the fitted maximal effect; tags describe the fitted curve by direction and shape.

Assay: qHTS Primary assay for Inhibitors of Plasmodium falciparum Dd2 growth in vitro; further: nearly all actives have a fitted effect of over 65% in size;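 on activity, negative = inhibition: plate controls were DMSO vehicle for no effect and reference drug for full effect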
Details: P. falciparum Dd2 growth, SYBR Green, 72 h; activity, negative = inhibition: at 28.9 µM (top of the series) unless noted; series mostly up to 28.9 µM
Method in brief: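 Infected erythrocytes (Dd2, 0.3% parasitemia, 2.5% hematocrit final) are added to compound in RPMI-1640/Albumax II medium, grown 72 h at 37C in low oxygen, then lysed with saponin/Triton-X containing SYBR Green and read by fluorescence.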
With Cc1ccc(S(=O)(=O)c2cn(CC(=O)Nc3ccc4c(c3)OCO4)c3ccc(C)cc3c2=O)cc1 the Potency was inconclusive: 17.8 µM [inhibitor, single point]. With Cc1ccc(C)c(C(=O)Nc2ccc3c(N4CCCC4)ncnc3c2)c1 the Potency was active: 2.51 µM. In the case of Cc1ccc(C2(C(=O)N3CCC4(CC3)CNC(C(=O)O)C4)CC2)cc1 (stereo not drawn), the “activity, negative = inhibition” value is reported as inactive: 12.5%. For CC1CCN(C(=O)CCC2(Cc3ccc4ccccc4c3)CCC(=O)N2)CC1 (stereo not drawn), the Potency was inconclusive: 2.51 µM [inhibitor, partial curve, poor fit]. With O=C(C1CC1)N1CCC2(CC1)CC(N(Cc1ccccc1)C1CC1)CCO2 (stereo not drawn) the Potency was inconclusive: 20 µM [inhibitor, single point]. With O=C(Nc1ccc([C@@H](O)[C@H]2COCC(=O)N2CCCc2ccccc2)cc1)C1CCC1 the Potency was inconclusive: 12.6 µM [inhibitor, single point]. In the case of COc1ccc(-c2nc(C3CC(=O)N(c4ccc(F)c(Cl)c4)C3)no2)cc1 (stereo not drawn), the “activity, negative = inhibition” value is reported as inactive: 32%. For COCCN1CCC(CN(Cc2ccc(Cl)s2)CC2CCCO2)CC1 (stereo not drawn), the Potency was inconclusive: 17.8 µM [inhibitor, single point]. In the case of Cn1ccc(NC(=O)c2ccc3c(c2)NC(C)(CNCc2ccccc2)CO3)n1 (stereo not drawn), the Potency is reported as inconclusive: 5.62 µM [inhibitor, partial curve, poor fit]. With Fc1ccc(-c2nnc3ccc(N4CCN(c5ccccn5)CC4)nn23)nc1 the Potency was inconclusive: 11.2 µM [inhibitor, single point]. With Cc1ccccc1NC(=O)N1CCC(CCNC(=O)c2ccnn2C)CC1 the “activity, negative = inhibition” value was inactive: 5.46%. With COCC(=O)NC[C@H]1CCN(Cc2ccc(C)s2)C[C@H]1N(C)C the “outcome” value was “inactive”. In the case of Cc1ccncc1C(=O)N1CC(c2nc(CCN(C)C(=O)C3CC3)no2)C1, the “activity, negative = inhibition” value is reported as inactive: 4.43%. In the case of COc1ccccc1OCCCn1c(C2CC(=O)N(c3ccc(F)cc3)C2)nc2ccccc21 (stereo not drawn), the Potency is reported as inconclusive: 11.2 µM [inhibitor, single point]. With COc1ccc(CCNC(=O)c2c(Nc3ccccc3C)sc(C(=O)c3ccccc3)c2N)cc1OC the “outcome” value was “inactive”. For COc1ccc(N2CCN(C(CNC(=O)c3c(F)cccc3F)c3ccc4c(c3)OCO4)CC2)cc1 (stereo not drawn), the Potency was inconclusive: 10 µM [inhibitor, single point]. For CNC(=O)[C@@H]1CN(C(=O)c2cc(C)n(CCOC)c2C)C[C@H]1CO, the “activity, negative = inhibition” value was inactive: 1.47%. In the case of CCOc1ccc(CC(=O)N2CCN(c3cc(-c4cccs4)[nH]n3)CC2)cc1OCC, the Potency is reported as inconclusive: 7.08 µM [inhibitor, partial curve, poor fit]. With CCCn1ncc(-c2nc(Cc3cccs3)nn2CC(=O)O)c1C the “activity, negative = inhibition” value was inactive: -4.68%. For O=C1CC2(CCN(C(=O)c3ccc(C(F)(F)F)cc3)CC2)Oc2cc(Cl)ccc21, the “activity, negative = inhibition” value was inactive: -4.07%. For COCCN1Cc2ccc(NCC(C)C)nc2C(C)(C(=O)Nc2ccccc2)C1 (stereo not drawn), the Potency was inconclusive: 3.16 µM [inhibitor, partial curve, poor fit]. With C#C[C@H]1CN2CC[C@H]1C[C@@H]2CNC(=O)Nc1cc(OC)cc(OC)c1 the Potency was inconclusive: 5.01 µM [inhibitor, full curve]. With Cn1c(=O)n(C)c2cc(N3CCCCC3)c(NC(=O)Nc3ccc(Br)cc3)cc21 the Potency was inconclusive: 17.8 µM [inhibitor, single point]. For CC(=O)c1ccc(NC(=O)Cn2ccn3nc(-c4ccc(F)cc4)c(CO)c3c2=O)cc1, the “activity, negative = inhibition” value was inactive: 8.88%. In the case of O=C1c2c(nc(COc3ccc4c(c3)OCO4)n2Cc2ccccc2)NCCN1CCOc1ccccc1, the “outcome” value is reported as “inactive”. In the case of COc1ccc(CNC(=O)[C@H]2CCC[C@H]2NC(=O)c2cnc(C)cn2)cc1, the “activity, negative = inhibition” value is reported as inactive: 16.3%. For Cc1ccc(-n2nc(C(=O)N3CCN(c4cc(C)ccc4C)CC3)c3c4ccccc4n(C)c3c2=O)cc1, the “activity, negative = inhibition” value was inactive: 31%. With Cc1ccc2nc(CN3CCCC(CO)(CC4CC4)C3)cn2c1 (stereo not drawn) the Potency was inconclusive: 20 µM [inhibitor, single point]. For CCc1cccc(NC(=O)C2CCN(C(=O)c3ncn4c3COC(c3ccccc3)C4)CC2)c1 (stereo not drawn), the “activity, negative = inhibition” value was inactive: -12.8%. For Cn1cc(S(=O)(=O)N2CCc3ccccc32)cc1C(=O)Nc1ccc(C(F)(F)F)cc1, the Potency was inconclusive: 10 µM [inhibitor, partial curve, poor fit]. With C[C@H]1[C@@H]2[C@@H](O)C([C@H](C)C(=O)NCc3cccs3)CC[C@@]2(C)CC[C@@H]1NC(=O)C1CCCCC1 (stereo partly drawn) the Potency was inconclusive: 7.08 µM [inhibitor, partial curve, poor fit]. For O=C1C(N2CCN(S(=O)(=O)c3cc(F)cc(F)c3)CC2)CCN1Cc1ccccn1 (stereo not drawn), the Potency was inconclusive: 2.82 µM [inhibitor, partial curve, poor fit]. For O=C(NCc1cnc2c(c1)CCC2)C1NCCc2[nH]cnc21 (stereo not drawn), the “outcome” value was “inactive”. With COc1ccccc1C(=O)N1CCCCCC1CN1CCOCC1 (stereo not drawn) the “activity, negative = inhibition” value was inactive: 2.65%. For Oc1ccccc1CNC1(Cc2cc(-c3ccccn3)on2)COC1, the “activity, negative = inhibition” value was inactive: -20.4% [at 44.1 µM]. With Cc1ccc2c(CC(=O)Nc3c(C(=O)Nc4cccc(Cl)c4)oc4ccccc34)coc2c1C the Potency was inconclusive: 12.6 µM [inhibitor, single point]. In the case of Cn1cc2c3c(cccc31)CN(C(=O)c1ccc(F)cc1Cl)CC2, the “outcome” value is reported as “inactive”. For CCOCCCNC(=O)N1CCOc2ccc(CN(CC)CC)cc2C1, the “outcome” value was “inactive”. For CC(C)CN1C(=O)c2ccccc2C(C(=O)NC(C)C)C12CCCCC2 (stereo not drawn), the “activity, negative = inhibition” value was inactive: 2%. With CCOCc1nc(C2CCCN(C(=O)c3ccnn3CC)C2)no1 (stereo not drawn) the “activity, negative = inhibition” value was inactive: 9.2%. With CN(Cc1cccnc1)C(=O)C1CCCCC(=O)N1C (stereo not drawn) the “activity, negative = inhibition” value was inactive: 25.1%. In the case of CC#CCn1cc2c3c(cccc31)[C@H](CC(C)C)N[C@H](C(=O)NCCN1CCOCC1)C2, the Potency is reported as inconclusive: 35.5 µM [inhibitor, single point]. For CN1CCC(C(=O)N2CCC3(CC2)OC(=O)N(Cc2ccccc2F)C3(C)c2ccccc2)CC1 (stereo not drawn), the Potency was active: 5.62 µM. In the case of COc1ccc(-c2cc(N3CCCC(NC(=O)c4ccc(C#N)cc4)C3)n[nH]2)cc1 (stereo not drawn), the Potency is reported as inconclusive: 1.58 µM [inhibitor, single point]. For CCOc1ccc(-c2cc3c(=O)n(CCNC(=O)c4ccc(C#N)cc4)ccn3n2)cc1, the Potency was inconclusive: 0.447 µM [inhibitor, full curve, poor fit]. With CC(=O)Nc1ccc(OCC(=O)NCCc2cccs2)nc1 the “activity, negative = inhibition” value was inactive: 1.72%. With COc1cc(OC)cc(C(=O)Nc2ccc(-c3nnc4n3CCCC4)cc2)c1 the Potency was inconclusive: 7.08 µM [inhibitor, partial curve]. For CC(C)(C)c1ccc(C(=O)N2CC(=O)Nc3ccc(F)cc3C2c2ccc(F)cc2)cc1 (stereo not drawn), the Potency was inconclusive: 11.2 µM [inhibitor, single point]. With O=C(c1ccc(F)cc1)N1CCC(c2nn(Cc3ccccc3)c(=O)[nH]2)CC1 the Potency was inconclusive: 0.891 µM [inhibitor, full curve, poor fit]. For CC(=O)NCC(=O)N1Cc2ccccc2CC2(CCCN2CC2CCCC2)C1 (stereo not drawn), the Potency was inconclusive: 14.1 µM [inhibitor, partial curve, poor fit]. For Fc1ccc(Cn2ccnc2-c2ccccn2)c(Cl)c1, the “activity, negative = inhibition” value was inactive: -16.3%. For COc1ccc(NC(=O)CSC2=Nc3ccccc3C3=NC(Cc4ccccc4)C(=O)N23)cc1Cl (stereo not drawn), the Potency was inconclusive: 17.8 µM [inhibitor, single point]. With CN(Cc1ccccc1)C(=O)Cn1ncc2c3ccccc3n(Cc3cccc(Cl)c3)c2c1=O the Potency was inconclusive: 6.31 µM [inhibitor, partial curve, poor fit]. With CS(=O)(=O)c1ccc(CN2C[C@@H]3C[C@H]2C(=O)N(Cc2ccc(OC(F)(F)F)cc2)c2ccccc2O3)cc1 the Potency was inconclusive: 7.08 µM [inhibitor, partial curve, poor fit]. With CCCS(=O)(=O)N1CC[C@H]2C(=O)NCCCCCCN(Cc3ccncc3)[C@@H]2C1 the “activity, negative = inhibition” value was inactive: 23%. For CCN(CC)C1(Cc2cc(CN(C)Cc3ccccc3)on2)COC1, the “outcome” value was “inactive [at 44.1 µM]”. In the case of Cc1noc([C@@H]2CN(S(=O)(=O)c3ccc4c(c3)CCCC4)C[C@H]2C(N)=O)n1, the “activity, negative = inhibition” value is reported as inactive: -15.3%. With CN(Cc1nc(-c2ccccc2)no1)C(=O)c1cccc(C2CCNC2)c1 (stereo not drawn) the Potency was inconclusive: 6.31 µM [inhibitor, partial curve, poor fit]. For CCN1CCN(CCCNC(=O)c2cc3c(s2)-c2c(C)cccc2OC3)CC1, the “outcome” value was “inactive”. With O=C1[C@H]2CN(Cc3cccc(Cl)c3)C[C@H]2C(=O)N1CCN1CCc2ccccc2C1 the Potency was inconclusive: 3.98 µM [inhibitor, single point]. For Cc1cc(C)cc(C(=O)N2[C@@H]3CC[C@H]2CC(NC(=O)c2cnc(C)cn2)C3)c1 (stereo partly drawn), the Potency was inconclusive: 20 µM [inhibitor, single point]. With CN1C(=O)C2(CCN(C(=O)c3ccc(C(F)(F)F)cc3)C2)c2ccccc21 (stereo not drawn) the Potency was inconclusive: 11.2 µM [inhibitor, single point]. With CCOc1ccccc1CNC(=O)c1[nH]c2ccccc2c1Sc1ccccc1 the Potency was inconclusive: 11.2 µM [inhibitor, single point]. In the case of O=C(c1ccco1)N1CCN(c2nc3ccc(Cl)cc3s2)CC1, the “outcome” value is reported as “inactive”. With C#CCNC(=O)CC[C@H]1CNC(=O)[C@@H]2[C@@H](CCN2Cc2ccc(S(C)(=O)=O)cc2)N1C the “activity, negative = inhibition” value was inactive: 2.8%. For Cc1ccc(N2CCC3(CCCN3Cc3ccc4nsnc4c3)CC2)nn1, the Potency was active: 12.6 µM. For CC1=C[C@@H](CN(C)CCC#N)[C@H](C(C)C)C[C@H]1Cc1nnc(-c2ccc(C)cc2)o1, the Potency was inconclusive: 2.24 µM [inhibitor, full curve, poor fit]. For O=C(CC[C@@H]1CNC(=O)[C@@H]2C[C@H](NC(=O)Nc3ccccc3)CN12)NCc1ccccc1, the Potency was inconclusive: 12.6 µM [inhibitor, single point].
